The test system of one assay is RC1 (DU145-RC1) cells. Description: Cell growth inhibition, DU145 sub-line with Top1 mutation. Format: cell-based, human. An excerpt: (§1) Each dot is the mean±SD derived from 3 independent assays.
(§2) Irinotecan and topotecan are the only two analogs derived from direct modification of camptothecin (CPT) that are approved by the FDA for cancer treatment in clinical practice. […] In this regard, we obtain one DU145 parental prostate cancer cell line and two DU145-derived sub-lines with Top1 mutations (DU145-RC0.1, DU145-RC1).

Assay [1] deals with RC0.1 (DU145-RC0.1) cells. The assay is described as above. Format: cell-based, human. Conditions: RC0.1.
Source text: as §1, §2

The subject of the next assay is HCT116-C4 cells. Format: cell-based, human.
Assay [2] has as its system HCT116 and HCT-8 colon cancer cells. Description: Combination of FL118 with curcumin: cell death ELISA, MTT and combination index. Format: cell-based, human. The settings on record: 48 hours. The procedure: Cell images are taken under microscopy with digital camera (A) or subject to cell death ELISA (DNA fragmentation) analysis (B). Each bar shown in B is the mean±SD from three independent assays.
Effects of Drug A and Drug B combination on growth inhibition are analyzed by the Combination Index (CI) equation developed by Chou-Talalay (Chou T C and Talalay P. Quantitative analysis of dose-effect relationships: the combined effects of multiple drugs or enzyme inhibitors. Adv Enzyme Regul 1984; 22: 27-55) using a CalcuSyn program (Biosoft, Cambridge, UK). […] The (Dx)1 and (Dx)2 can be readily calculated from the Meridian-effect equation of Chou (Chou T C. Preclinical versus clinical drug combination studies. Leuk Lymphoma 2008; 49: 2059-2080): Dx=Dm[fa/(1−fa)]^1/m where Dx is the median-effect dose, fa is the fraction affected, Dm is the median-effect dose signifying potency and m is the kinetic order signifying the shape of dose-effect curve. A 3-D plot of CI versus concentrations of both Drug A and Drug B is obtained for each treated cell line as descried before (Soriano A F, et al., Synergistic effects of new chemopreventive agents and conventional cytotoxic agents against human lung cancer cell lines. Cancer Res 1999; 59: 6178-6184).

Assay [3] has as its system survivin, Mcl-1, XIAP, cIAP2. Format: cell-based, human.
In another assay the test system is survivin. Description: Western blot for survivin expression in FaDu cells. Format: cell-based, human. The settings on record: 24 hours.
A further assay has as its system HCT-8 cells. Description: Senescence-associated β-gal assay. In kind it is cell-based, human. The settings on record: 10 nM FL118. An excerpt: The cells are stained for SA-b-gal activity. C.
Then the cells were fixed and stained for SA-β-gal activity with a commercial kit performed according to manufacturer's instructions (Calbiochem, catalog no QIA117).

Assay [4] has as its system Hdm2-mediated p53 ubiquitination. Description: In vivo (in cell) p53 ubiquitination assay in HCT-8 cells. The settings on record: 10 and 100 nM FL118, MG132.

What is called IC50 is the point on the concentration scale where inhibition reaches its midpoint. A high value points to weaker potency in that assay.

Consider `CC[C@@]1(O)C(=O)OCc2c1cc1n(c2=O)Cc2cc3cc4c(cc3nc2-1)OCO4` [FL118], for which the figures for the IC50 (in the assay on RC1 (DU145-RC1) cells; in assay [1]; in the assay with HCT116-C4 cells) were 102 nM, 78.7 nM and 0.152 nM, respectively. In addition, the RP with HCT116-C4 cells (IC50 of topotecan divided by IC50 of the drug) was 564.1. Moreover, the “cancer cell death in combination with curcumin” value in assay [2] is “curcumin enhances FL118 anti-cancer efficacy to induce colon cancer cell death”. Moreover, the “more effective than topotecan (irinotecan and topotecan) in inhibition of survivin, Mcl-1, XIAP, cIAP2” value in assay [3] is “at least 10 time”. For the same molecule, the survivin expression result in the assay with survivin is “inhibits survivin expression”. For the same molecule, in the assay on HCT-8 cells, the “senescence (SA-β-gal positivity)” value is “induces p53-dependent senescence”. Moreover, in assay [4], the “p53 ubiquitination in cells” value is “inhibits Hdm2-mediated p53 ubiquitination in cells”.

The values are drawn from patent US10344037B2, “Use of the FL-one hundred eighteen core chemical structure platform to generate FL-one hundred eighteen derivatives for treatment of human disease” (priority 2014, dated 2019).
